The numbers were not newly measured in PubChem BioAssay AID1259409 (Chemical Carcinogenesis Research Information System (CCRIS), 2018), which cites them from elsewhere.

Each structure is given as a SMILES string. Some entries of the source have several records that differ or are many. The list is limited to them. The source may hold further records. Values that stand side by side do not match, cause unknown; they may come from other doses, times, organisms or constructs than stated.

In the data set the test system is rodent chemically induced tumor inhibition, incidence and multiplicity. Description: CCRIS tumor inhibitor studies. The source says:
The CCRIS database contains chemical records with carcinogenicity, mutagenicity, tumor promotion, and tumor inhibition test results. It was developed by the National Cancer Institute (NCI). Data are derived from studies cited in primary journals, current awareness tools, NCI reports, and other sources. Test results have been reviewed by experts in carcinogenesis and mutagenesis.
CCRIS provides historical information from the years 1985 - 2011. It is no longer updated.
This is an archive assay for CCRIS tumor inhibitor studies.

As for `CC1=C(/C=C/C(C)=C/C=C/C(C)=C/C(=O)Nc2ccc(O)cc2)C(C)(C)CCC1`, the “tumour outcome (control, treated, inhibition, significance)” value is, setting by setting: (Carcinogen: 7,12-DIMETHYLBENZ[A]ANTHRACENE, 57-97-6, Dose [Inhibitor]: 782 MG/KG DIET DAILY STARTING 7 D AFTER CARCINOGEN ADMINISTRATION AND CONTINUING THROUGH THE END OF THE STUDY (STUDY DUR, Route [Inhibitor]: ORAL, Species: RAT, Strain/Sex: SPRAGUE-DAWLEY/FEMALE, Target Tissue: Type of Lesion: MAMMARY GLAND: TUMOR, Dose [Carcinogen]: 20 MG ONCE, Promoter: NONE USED) 91%, 85%, 7%, p<0.05 and 26%, 6%, 77%, p<0.01; (Carcinogen: N-METHYL-N-NITROSOUREA, 684-93-5, Dose [Inhibitor]: 782 MG/KG DIET DAILY STARTING 7 D AFTER CARCINOGEN ADMINISTRATION AND CONTINUING THROUGH THE END OF THE STUDY (STUDY DUR, Route [Inhibitor]: ORAL, Species: RAT, Strain/Sex: SPRAGUE-DAWLEY/FEMALE, Target Tissue: Type of Lesion: MAMMARY GLAND: TUMOR, Dose [Carcinogen]: 50 MG/KG BW ONCE, Promoter: NONE USED) 100%, 92%, 8%, p<0.05 and 18%, 2%, 89%, p<0.01.

Take `Cn1c(=O)c2c(ncn2C)n(C)c1=O`: the “tumour outcome (control, treated, inhibition, significance)” value reads like this: (Carcinogen: 7,12-DIMETHYLBENZ[A]ANTHRACENE, 57-97-6, Dose [Inhibitor]: 0, 500 MG/L IN DRINKING WATER OF 84 DAY OLD RATS WHICH WERE OVARIECTOMIZED AT 72 D OF AGE (STUDY DURATION: 130 D), Route [Inhibitor]: ORAL, Species: RAT, Strain/Sex: SPRAGUE-DAWLEY/FEMALE, Target Tissue: Type of Lesion: MAMMARY GLAND: CARCINOMA, Dose [Carcinogen]: 10 MG/ML IN CORN OIL ONCE TO 53 DAY OLD RATS, Promoter: 17BETA-ESTRADIOL, 50-28-2) 63%, 60%, 5%, not significant and 48%, 43%, 10%, not significant and 12%, 10%, 17%, not significant; (Carcinogen: 7,12-DIMETHYLBENZ[A]ANTHRACENE, 57-97-6, Dose [Inhibitor]: 0, 500 MG/L IN DRINKING WATER OF 84 DAY OLD RATS WHICH WERE OVARIECTOMIZED AT 72 D OF AGE (STUDY DURATION: 130 D), Route [Inhibitor]: ORAL, Species: RAT, Strain/Sex: SPRAGUE-DAWLEY/FEMALE, Target Tissue: Type of Lesion: MAMMARY GLAND: FIBROADENOMA, Dose [Carcinogen]: 10 MG/ML IN CORN OIL ONCE TO 53 DAY OLD RATS, Promoter: 17BETA-ESTRADIOL, 50-28-2) 54%, 14%, 74%, p<0.001 and 81%, 57%, 30%, p<0.05 and 10%, 2%, 80%, not significant.

On to `Cc1cc(C(C)(C)C)c(O)c(C(C)(C)C)c1`, for which the “tumour outcome (control, treated, inhibition, significance)” value (Carcinogen: 7,12-DIMETHYLBENZ(A)ANTHRACENE, 57-97-6, Dose [Inhibitor]: 0.3% BHT IN DIET FROM WEANING ONWARD (STUDY DURATION: 6 MO AFTER CARCINOGEN ADMINISTRATION), Route [Inhibitor]: ORAL, Species: RAT, Strain/Sex: SPRAGUE-DAWLEY/FEMALE, Target Tissue: Type of Lesion: MAMMARY GLAND: ADENOCARCINOMA, Dose [Carcinogen]: 10 MG/RAT IN 1 ML STRIPPED CORN OIL, SINGLE DOSE ON D 50 FOLLOWING 24 HR FASTING PERIOD, Promoter: NONE USED) was 40%, 26%, 35%, not calculated and 70%, 33%, 53%, not calculated.

Regarding `O=C1O[C@H]([C@@H](O)CO)C(O)=C1O`, the “tumour outcome (control, treated, inhibition, significance)” value (Carcinogen: 7,12-DIMETHYLBENZ[A]ANTHRACENE, 57-97-6, Dose [Inhibitor]: 0.2% IN 0.25 ML OF 20:80 WATER-ACETONE DAILY FOR 20 D BEGINNING 1 D POST CARCINOGEN TREATMENT (STUDY DURATION: 21 WK), Route [Inhibitor]: DERMAL, Species: MOUSE, Strain/Sex: ICR/FEMALE, Target Tissue: Type of Lesion: SKIN: PAPILLOMA, Dose [Carcinogen]: 0.125 MG IN 0.25 ML ACETONE ONCE, Promoter: CROTON OIL, 8001-28-3) was 63%, 71%, -13%, not significant and 89%, 70%, 21%, not significant.

With `c1ccc2c(Cc3c[nH]c4ccccc34)c[nH]c2c1`, the “tumour outcome (control, treated, inhibition, significance)” value (Carcinogen: 7,12-DIMETHYLBENZ[A]ANTHRACENE, 57-97-6, Dose [Inhibitor]: 0.05 MMOL IN 1 ML DIMETHYL SULFOXIDE ONCE 20 HR PRIOR TO CARCINOGEN ADMINISTRATION FOLLOWED BY A 14 WK OBSERVATION PERIO, Route [Inhibitor]: GAVAGE, Species: RAT, Strain/Sex: SPRAGUE-DAWLEY/FEMALE, Target Tissue: Type of Lesion: MAMMARY GLAND: TUMOR, Dose [Carcinogen]: 12 MG IN 1 ML OLIVE OIL ONCE, Promoter: NONE USED) is 91%, 27%, 70%, p<0.01 and 60%, 36%, 40%, not significant.

As for `O=[Se](O)O`, the “tumour outcome (control, treated, inhibition, significance)” value was 21/30 (70%), 7/30 (23%), 67%, p<0.001 and 68%, 25%, 63%, p<0.01 (Carcinogen: 7,12-DIMETHYLBENZ[A]ANTHRACENE, 57-97-6, Dose [Inhibitor]: 5 PPM IN 5% CORN OIL DIET DAILY STARTING 29 D BEFORE CARCINOGEN TREATMENT AND CONTINUING FOR DURATION OF STUDY (STUDY DU, Route [Inhibitor]: ORAL, Species: RAT, Strain/Sex: SPRAGUE-DAWLEY/FEMALE, Target Tissue: Type of Lesion: MAMMARY GLAND: ADENOCARCINOMA, Dose [Carcinogen]: 10 MG IN CORN OIL ONCE AT 50 D OF AGE, Promoter: NONE USED); 30/30 (100%), 16/29 (55%), 45%, p<0.001 and 96%, 48%, 50%, p<0.01 (Carcinogen: 7,12-DIMETHYLBENZ[A]ANTHRACENE, 57-97-6, Dose [Inhibitor]: 5 PPM IN 25% CORN OIL DIET DAILY STARTING 29 D BEFORE CARCINOGEN TREATMENT AND CONTINUING FOR DURATION OF STUDY (STUDY D, Route [Inhibitor]: ORAL, Species: RAT, Strain/Sex: SPRAGUE-DAWLEY/FEMALE, Target Tissue: Type of Lesion: MAMMARY GLAND: ADENOCARCINOMA, Dose [Carcinogen]: 10 MG IN CORN OIL ONCE AT 50 D OF AGE, Promoter: NONE USED).

Consider `COc1cc(/C=C/C(=O)CC(=O)/C=C/c2ccc(O)c(OC)c2)ccc1O`, for which the “tumour outcome (control, treated, inhibition, significance)” value is 62.5%, 39.3%, 37.1%, not significant and 4.17%, 0%, 100%, not significant (Carcinogen: N-NITROSOMETHYLBENZYLAMINE [937-40-6], Dose [Inhibitor]: 0, 500 PPM FOR 7 WK BEGINNING 1 WK PRIOR TO FIRST CARCINOGEN DOSE (STUDY DURATION: 40 WK), Route [Inhibitor]: SUBCUTANEOUS, Species: RAT, Strain/Sex: F344/MALE, Target Tissue: Type of Lesion: ESOPHAGUS: SQUAMOUS CELL PAPILLOMA, Dose [Carcinogen]: 1 MG/KG 3X/WK FOR 5 WK (STUDY DURATION: 40 WK), Promoter: NONE); 62.5%, 33.3%, 46.7%, p<0.01 and 4.17%, 0%, 100%, not significant (Carcinogen: N-NITROSOMETHYLBENZYLAMINE [937-40-6], Dose [Inhibitor]: 0, 500 PPM FOR 33 WK BEGINNING 1 WK POST LAST CARCINOGEN DOSE (STUDY DURATION: 40 WK), Route [Inhibitor]: SUBCUTANEOUS, Species: RAT, Strain/Sex: F344/MALE, Target Tissue: Type of Lesion: ESOPHAGUS: SQUAMOUS CELL PAPILLOMA, Dose [Carcinogen]: 1 MG/KG 3X/WK FOR 5 WK (STUDY DURATION: 40 WK), Promoter: NONE).

Consider `[O]=[W](=[O])([OH])[OH]`, for which the “tumour outcome (control, treated, inhibition, significance)” value (Carcinogen: N-METHYL-N-NITROSOUREA, 684-93-5, Dose [Inhibitor]: 150 PPM IN DRINKING WATER DAILY STARTING 15 D PRIOR TO CARCINOGEN TREATMENT AND CONTINUING THROUGH END OF THE STUDY (STU, Route [Inhibitor]: ORAL, Species: RAT, Strain/Sex: SPRAGUE-DAWLEY/FEMALE, Target Tissue: Type of Lesion: MAMMARY GLAND: PAPILLARY CARCINOMA, Dose [Carcinogen]: 5 MG/100 G BW ONCE, Promoter: NONE USED) was 50%, 79%, -58%, p<0.05 and 91%, 96%, -5%, not significant.

`C=C1/C(=C\C=C2/CCC[C@]3(C)[C@@H]([C@H](C)CCCC(C)(C)O)CC[C@@H]23)C[C@@H](O)C[C@@H]1O`: where the note is “Carcinogen: 7,12-DIMETHYLBENZ[A]ANTHRACENE, 57-97-6, Dose [Inhibitor]: 0.5 NMOL 2/WK STARTING 1 WK AFTER CARCINOGEN TREATMENT AND CONTINUING FOR 9 WK (STUDY DURATION: 10 WK), Route [Inhibitor]: DERMAL, Species: MOUSE, Strain/Sex: CD-1/FEMALE, Target Tissue: Type of Lesion: SKIN: PAPILLOMA, Dose [Carcinogen]: 20 NMOL ONCE, Promoter: 12-O-TETRADECANOYLPHORBOL-13-ACETATE, 16561-29-8”, the “tumour outcome (control, treated, inhibition, significance)” value was 47%, 20%, 57%, not significant and 77%, 34%, 56%, p<0.05.

Regarding `CCCOC(=O)c1cc(O)c(O)c(O)c1`, for the setting “Carcinogen: 7,12-DIMETHYLBENZ(A)ANTHRACENE, 57-97-6, Dose [Inhibitor]: 0.3% IN DIET FROM WEANING ONWARD (STUDY DURATION: 6 MO AFTER CARCINOGEN ADMINISTRATION), Route [Inhibitor]: ORAL, Species: RAT, Strain/Sex: SPRAGUE-DAWLEY/FEMALE, Target Tissue: Type of Lesion: MAMMARY GLAND: TUMOR, Dose [Carcinogen]: 10 MG/RAT IN 1 ML STRIPPED CORN OIL, SINGLE DOSE ON D 50 FOLLOWING 24 HR FASTING PERIOD, Promoter: NONE USED”, the “tumour outcome (control, treated, inhibition, significance)” value was 100%, 73%, 27%, not calculated and 70%, 33%, 53%, not calculated and 40%, 10%, 75%, not calculated.
